Results: PubChem BioAssay AID1345082 (National Center for Advancing Translational Sciences (NCATS), 2018)
About 4,000 (4.3%) of roughly 94,000 compounds were called active. The inconclusive results got no clear call from the source; some entries with a clear call stand among them for comparison. The call rests on the fitted dose curve; in most records, active means well fitted inhibition curve with a large enough effect; inconclusive means small, poorly fitted or top-dose-only effect; inactive means no such curve, though single readings can be large or run the other way. Where the call is inconclusive, the potency comes from a doubtful curve fit.

Assay: Cytotoxic Profiling in NIH 3T3 Cell Line of Diverse Libraries Using Quantitative High-Throughput Screening; further: nearly all actives have a fitted effect of over 55% in size
Conditions: NIH 3T3 viability, CellTiter-Glo ATP luminescence, 48-72 h; series mostly up to 96.7 µM
Summary of the method: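 Viability of NIH 3T3 cells after 48 or 72 hr compound treatment at 37 °C was assessed by CellTiter-Glo, with luminescence imaged following a 10 min room-temperature step.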
Potency means the concentration at half of the fitted maximal effect; tags describe the fitted curve by direction and shape.

SMILES	Potency
CN1C[C@@H](NC(=O)c2ccc(F)cc2)C[C@H]1c1nc(-c2ccc(Cl)cc2)no1	inconclusive: 100 µM [inhibitor, partial curve]
COc1ccc(C2Cn3nnc(-c4nc(C5CCCCC5)no4)c3CO2)cc1 (stereo unspecified)	inactive
Cc1noc2c(-c3cccnc3NC(C)C)cc(-c3ccccc3)nc12	inconclusive: 28.2 µM [inhibitor, full curve]
CC(=O)c1ccc(NC(=O)N[C@@H]2C=C(C(=O)NCCC(N)=O)C[C@@H](O)[C@@H]2O)cc1	inactive
CCC1Oc2ccc(NC(=O)C(CC)c3ccccc3)cc2CN(Cc2ccccc2)C1=O (stereo unspecified)	inconclusive: 35.5 µM [inhibitor, partial curve]
CC(NC(=O)Cc1ccc(N(Cc2cccc(F)c2)C(=O)c2ccco2)cc1)c1ccccc1 (stereo unspecified)	inconclusive: 39.8 µM [inhibitor, partial curve]
O=C(c1ccncc1)N1CCC2(CC1)CC(N(C(=O)c1ccccc1)C1CC1)CCO2 (stereo unspecified)	inactive
C[C@@H]1C(=O)O[C@H]2[C@H]1CC[C@@]1(C)Cc3sc(NCCc4ccccn4)nc3[C@@H](C)[C@H]21	inconclusive: 89.1 µM [inhibitor, partial curve]
NC(=O)c1ccc(CC2CCN(C(=O)C3CCOCC3)CC2)cc1	inactive
O=C1CO[C@H]2CN(Cc3ccccc3)C[C@H]2N1Cc1cccc(C(F)(F)F)c1	inconclusive: 89.1 µM [inhibitor, partial curve]
COCCOc1cc(C)c2c(c1C)C[C@H](C(C)C(=O)NC(C)(C)C)CC2 (stereo partly specified)	inconclusive: 63.1 µM [inhibitor, partial curve, poor fit]
Cc1noc(C)c1S(=O)(=O)N1CCC(C(=O)N2CCC(CCOc3ccc(F)cc3)C2)CC1 (stereo unspecified)	inconclusive: 39.8 µM [inhibitor, partial curve, poor fit]
CCOC(=O)C1CCN(C(=O)c2coc(COc3cccc(F)c3)n2)CC1	inconclusive: 79.4 µM [inhibitor, partial curve, poor fit]
O=C1Nc2ccc(-c3cccc(C(F)(F)F)c3)cc2C(=O)N2CCN(C(=O)c3ccccc3)C[C@H]12	inconclusive: 50.1 µM [inhibitor, partial curve, poor fit]
O=C([C@@H]1C[C@H](Oc2cccnc2)CN1C(=O)NC1CCCCC1)N1CCOCC1	inconclusive: 56.2 µM [inhibitor, partial curve, poor fit]
C[S+](=O)([O-])NC1CCCN(c2ccc3nnc(-c4ccccc4)n3n2)C1 (stereo unspecified)	inconclusive: 50.1 µM [inhibitor, partial curve, poor fit]
CCOc1cccc(CNC(=O)CC2CCOCC2)c1	inactive
Cc1cccnc1CNC(=O)[C@H]1C[C@@H](C(=O)O)N(C)[C@H]1c1cccc(Cl)c1	inconclusive: 50.1 µM [inhibitor, partial curve, poor fit]
Cc1cc(S(=O)(=O)N2CCCC(Cn3c(C)nc4cccnc43)C2)ccc1Cl (stereo unspecified)	inconclusive: 39.8 µM [inhibitor, partial curve, poor fit]
COc1ccc(CCC(=O)N2CCN(C(=O)c3nnn4c3COC(c3ccc(C)cc3)C4)CC2)cc1 (stereo unspecified)	inactive
COc1ccc(Nc2ccnc(N3CCCC(C(=O)NCCc4ccccc4)C3)n2)cc1 (stereo unspecified)	inconclusive: 22.4 µM [inhibitor, full curve, poor fit]

SMILES	Potency
CCn1cc(-c2ccc(C)cc2)cc1C(=O)N1CCC(C)CC1	inconclusive: 44.7 µM [inhibitor, partial curve, poor fit]
CC(C(=O)N1CC(c2noc(COc3ccccc3)n2)C1)c1ccccc1 (stereo unspecified)	inconclusive: 39.8 µM [inhibitor, partial curve]
Cc1nn(CCCNC(=O)C2CCOc3ccccc3C2)c(C)c1Cl (stereo unspecified)	inconclusive: 25.1 µM [inhibitor, full curve, poor fit]
CN(Cc1ccccc1)C1CCOC2(CCN(C(=O)CCc3nc4ccccc4[nH]3)CC2)C1 (stereo unspecified)	inactive
O=C(C1CC1)N1CCC(c2nn(-c3ccc(Cl)cc3)c(=O)[nH]2)CC1	inactive
Cc1nc(C)c(CN2CCOC[C@H](Oc3cnccn3)C2)s1	inactive
Cc1nnc(-c2cc(-c3cccc(O)c3)ccn2)n1CCc1ccccc1	active: 100 µM
O=C(NCc1nnc2ccc(-c3ccccc3)nn12)c1cccc(C(F)(F)F)c1	inconclusive: 50.1 µM [inhibitor, partial curve, poor fit]
COCCC(=O)N[C@H]1C[C@@H](c2nc(-c3ccc(OC(F)(F)F)cc3)no2)N(C)C1	inconclusive: 70.8 µM [inhibitor, partial curve, poor fit]
CCn1cc(-c2ccc(C)cc2)cc1C(=O)NC(C)c1ccccn1 (stereo unspecified)	inconclusive: 44.7 µM [inhibitor, partial curve, poor fit]
CCCS(=O)(=O)NCCc1ncc(C)n1CC1CC1	inactive
O=C(NCc1ccccc1)c1cnc2n1CCN(Cc1c[nH]c3ccccc13)CC2	inconclusive: 56.2 µM [inhibitor, partial curve, poor fit]
COc1ccc(CC(=O)N2CCC(Cc3nc(-c4ccc(F)cc4)no3)CC2)cc1OC	inconclusive: 8.91 µM [inhibitor, full curve, poor fit]
FC(F)Oc1cccc(CNC2CCC3(CCNCC3)CC2)c1	inconclusive: 50.1 µM [inhibitor, partial curve, poor fit]
COc1ccccc1N1CCCc2ncc(C(=O)Nc3ccccc3C)cc21	inconclusive: 100 µM [inhibitor, partial curve, poor fit]
Cc1noc2c(N3CC[S+](=O)([O-])CC3)cc(-c3cccnc3)nc12	inconclusive: 44.7 µM [inhibitor, partial curve, poor fit]
O=C1NN=C(c2ccccn2)C12CCN([S+](=O)([O-])c1cccc(C(F)(F)F)c1)CC2	inconclusive: 28.2 µM [inhibitor, partial curve, poor fit]
Cc1nccc(-c2ccccc2)c1C(=O)N(C)Cc1csc(C(C)C)n1	inconclusive: 44.7 µM [inhibitor, full curve, poor fit]
Cc1noc2c(-c3cccnc3NCCN(C)C)cc(-c3ccccc3)nc12	active: 44.7 µM
Oc1cc(-c2cccc(Cl)c2)cc2c1OCCN(Cc1noc(C3CC3)n1)C2	inconclusive: 89.1 µM [inhibitor, single point]
COc1ccc(-c2nc3ccc(-c4ccc5c(c4)OCO5)cc3o2)c(OC)c1OC	inconclusive: 15.8 µM [inhibitor, full curve]

SMILES	Potency
CC(C)c1nc2c(c(-c3ccc(O)cc3)n1)CN(C(=O)Nc1ccc(Cl)cc1)CC2	inconclusive: 35.5 µM [inhibitor, partial curve, poor fit]
Cn1cc(CN2CCN(C(=O)c3ccsc3)CC2)ccc1=O	inconclusive: 70.8 µM [inhibitor, single point]
O=C(c1ccc(F)cc1F)N1CCC2(CC1)N=C(c1ccc(Cl)cc1)NO2	inconclusive: 17.8 µM [inhibitor, full curve]
COc1ccc(C(=O)N2CCOCC3(CN(Cc4cc(F)ccc4F)C3)C2)cc1OC	inconclusive: 112 µM [inhibitor, single point]
CC(C)NC(=O)c1ccccc1OCC1CCCN(Cc2ccc(Br)o2)C1 (stereo unspecified)	inconclusive: 44.7 µM [inhibitor, partial curve, poor fit]
CCOc1ncccc1C(=O)N[C@H](c1cncc(OC)c1)C1CC(O)C1 (stereo partly specified)	inactive
Cc1nnc2n1C(C)CN(C(=O)Cn1nnc(-c3ccc(F)cc3)n1)C2 (stereo unspecified)	inactive
O=C(Cn1c(=O)c2c(n1Cc1ccccc1)CN(Cc1ccccc1)CC2)NCc1ccc(F)cc1	inconclusive: 31.6 µM [inhibitor, partial curve, poor fit]
Cn1cc(-c2cccc(O)c2)c2nc(COc3ccc(Cl)cc3)cn2c1=O	inconclusive: 22.4 µM [inhibitor, full curve, poor fit]
Cc1cc(C)n(Cc2cc(C(=O)NC[C@H]3C[C@H]4C=C[C@H]3C43CC3)n[nH]2)n1	inconclusive: 31.6 µM [inhibitor, partial curve, poor fit]
Cc1ccccc1CCC1CCCN(C(=O)CCN2CCCC2=O)C1 (stereo unspecified)	inconclusive: 25.1 µM [inhibitor, full curve]
O=C1CCN(C(=O)[C@@H]2CCCN2Cc2ccc(F)cc2F)CCCCCCN1	inconclusive: 70.8 µM [inhibitor, single point]
COCCNc1ncc(-c2ccc(OC)cc2)c2c1OCC2	inconclusive: 79.4 µM [inhibitor, partial curve, poor fit]
CC(=O)N[C@H]1C[C@@H](c2nc(-c3ccc4c(c3)OCO4)no2)N(C)C1	inactive
CN(C)c1ccc(-n2c(=O)c(C(=O)NCC(F)(F)F)nc3cccnc32)cc1	inactive
O=C(CC1CCCCC1)N1CCC(Cc2nc(-c3ccc(F)cc3)no2)CC1	inconclusive: 35.5 µM [inhibitor, partial curve, poor fit]
COc1ccc(-c2cc(C(=O)NCc3ccc(F)cc3F)c3cnn(C)c3n2)cc1	inconclusive: 56.2 µM [inhibitor, partial curve, poor fit]
O=c1n(-c2ccc([N+](=O)[O-])cc2)nc2n1CCN(Cc1ccc(F)cc1)C2	inconclusive: 35.5 µM [inhibitor, partial curve, poor fit]
COCCn1c(=O)c2c(n1Cc1ccccc1)CN(C(=O)c1nc3ccccc3[nH]1)CC2	inconclusive: 63.1 µM [inhibitor, partial curve, poor fit]
